According to paper PMC4336329 (PLoS ONE, 2015):
The whole screen tested about 310,000 compounds, of which about 2,200 (0.71%) showed an effect of 50% or more. Effects have a minus sign here. The list shows a part of the results.

Target: human ether-à-go-go-related gene (hERG) potassium channel (human, UniProt Q12809)
Assay: primary screen, population patch clamp on CHO cells stably expressing hERG

human ether-à-go-go-related gene (hERG) potassium channel, sequence (Q12809 whole entry, looked up): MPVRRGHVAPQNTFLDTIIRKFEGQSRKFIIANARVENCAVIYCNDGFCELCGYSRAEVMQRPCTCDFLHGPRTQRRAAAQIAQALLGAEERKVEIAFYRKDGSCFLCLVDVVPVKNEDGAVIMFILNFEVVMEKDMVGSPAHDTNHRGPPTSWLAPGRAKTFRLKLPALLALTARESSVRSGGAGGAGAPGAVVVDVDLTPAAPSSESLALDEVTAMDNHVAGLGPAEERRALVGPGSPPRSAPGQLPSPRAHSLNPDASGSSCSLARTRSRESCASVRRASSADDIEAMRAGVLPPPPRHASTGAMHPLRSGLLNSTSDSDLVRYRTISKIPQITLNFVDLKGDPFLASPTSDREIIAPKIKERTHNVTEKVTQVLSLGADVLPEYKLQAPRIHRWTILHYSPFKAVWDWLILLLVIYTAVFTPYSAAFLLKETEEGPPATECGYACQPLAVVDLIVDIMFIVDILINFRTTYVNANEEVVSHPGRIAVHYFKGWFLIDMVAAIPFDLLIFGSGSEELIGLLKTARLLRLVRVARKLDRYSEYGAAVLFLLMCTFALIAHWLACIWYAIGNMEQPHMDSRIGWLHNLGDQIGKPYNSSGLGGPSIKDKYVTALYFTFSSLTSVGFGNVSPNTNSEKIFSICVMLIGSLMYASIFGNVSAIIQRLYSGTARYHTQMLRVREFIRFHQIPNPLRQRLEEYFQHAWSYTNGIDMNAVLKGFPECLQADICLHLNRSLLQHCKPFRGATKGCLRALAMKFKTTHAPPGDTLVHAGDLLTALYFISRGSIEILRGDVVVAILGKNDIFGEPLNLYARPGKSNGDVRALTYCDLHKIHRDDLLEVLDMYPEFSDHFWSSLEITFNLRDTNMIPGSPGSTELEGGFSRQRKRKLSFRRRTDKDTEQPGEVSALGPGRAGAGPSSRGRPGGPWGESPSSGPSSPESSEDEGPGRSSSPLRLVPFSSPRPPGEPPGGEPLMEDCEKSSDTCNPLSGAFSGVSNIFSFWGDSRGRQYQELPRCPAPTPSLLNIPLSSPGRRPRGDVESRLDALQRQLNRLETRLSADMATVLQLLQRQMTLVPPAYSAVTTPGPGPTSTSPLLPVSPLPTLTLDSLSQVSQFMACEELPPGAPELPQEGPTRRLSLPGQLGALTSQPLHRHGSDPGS

Structure (SMILES)	hERG current change (%, negative = inhibition) at 1uM
N#Cc1ccc(-c2ccc(OCC(=O)NCC(=O)Nc3ccc(F)c(F)c3F)cc2)cc1	-2.68%
O=C(c1ccccc1)N1CCN(c2ccc([N+](=O)[O-])c(NCC3CCCO3)c2)CC1 (stereo not shown)	-7.95%
O=C(NCC1CCCO1)c1cc2ccccc2cc1O (stereo not shown)	6.99%
N#Cc1ccc(CN2CCN(C(=O)CNS(=O)(=O)c3ccc4c(c3)OCCCO4)CC2)cc1	0.354%
COc1ccc(NC(=O)c2cccc(S(=O)(=O)N3CCCCCC3)c2)cc1	5.87%
Nc1ccc2nn(-c3cccc4ccccc34)nc2c1	4.08%
Cc1cc2nnc(SCC(=O)NCC(c3ccccc3)N(C)C)n2c2ccccc12 (stereo not shown)	8.65%
COc1cccc(CNC(=O)c2ccc(CS(=O)Cc3ccc(C)cc3)o2)c1 (stereo not shown)	9.53%
CC(=O)Nc1sc(N/N=C\c2ccccc2F)nc1-c1cccs1	5.96%
CCOC(=O)c1cc2c(=O)n3ccccc3nc2n(C(C)C)c1=NC(=O)c1ccncc1	-35.1%
COc1ccc(NC(=O)CN(C)CC(=O)Nc2cccc(C(C)=O)c2)cc1	8.92%
Cc1ccc(S(=O)(=O)Nc2cccc(-c3ccc(N4CCCCCC4)nn3)c2)cc1	15%
Cc1ccc(C)c2c1cc(C)c1nnc(SCC(=O)NCc3ccc4c(c3)OCO4)n12	1.46%
CCCCn1cnc2c([nH]c3ccccc32)c1=O	16%
CCCN(CC1CCCO1)C(=O)CCc1nnc(CCc2ccc(OC)cc2)o1 (stereo not shown)	13.9%
Cc1cccn2c(N)c(-c3ccccc3)nc12	3.9%
O=C(NC1CCCCC1)NC1CC2CCCC(C1)N2C1CCCC1 (stereo not shown)	7.05%
O=C(N/N=C/c1cc(Br)cc(Br)c1O)c1cccc(S(=O)(=O)N2CCOCC2)c1	29.1%
COCCOC(=O)c1cc(C(=O)c2cc(Cl)ccc2O)coc1=N	23%
O=C(NCCS(=O)(=O)N1CCN(c2ccccc2F)CC1)c1cc(=O)c2ccccc2o1	7.17%
Cc1ccc(S(=O)(=O)N2CCC(=O)N(C(CO)Cc3ccccc3)CC2)cc1 (stereo not shown)	13.1%
Cc1ccc(OCC(=O)O/N=C(\N)Cc2ccc([N+](=O)[O-])cc2)cc1C	6.07%
CCCS(=O)(=O)N1CCCC(C(=O)N2CCN(C(=O)OCC)CC2)C1 (stereo not shown)	10.6%
CSCCC(NC(=O)c1ccccc1Cl)C(=O)N1CC(C)OC(C)C1 (stereo not shown)	12.3%
CC(C)(C)C(=O)Cn1nnc(-c2ccc(C(F)(F)F)cc2)n1	13.1%
C=CCNC(=S)Nc1nc2c(cc1C(=O)OCC)COC(C)(C)C2	11.7%
COc1ccc(-c2[nH]n(-c3ccc([N+](=O)[O-])cc3)c(=O)c2C=NCc2ccncc2)cc1	4.62%
COc1ccccc1C1=NOC(C(=O)N2CCN(C(=O)c3ccco3)CC2)C1 (stereo not shown)	8.33%

Structure (SMILES)	hERG current change (%, negative = inhibition) at 1uM
O=c1c(-c2ccc(Cl)cc2)c[nH]n1-c1ccccc1	18.4%
COc1ccc(OCC(O)CN2C(=O)c3ccccc3S2(=O)=O)cc1 (stereo not shown)	1.37%
COc1cc(C)c(S(=O)(=O)N2CCOCC2)c(C)c1C	12.6%
Cn1nccc1NC(=O)Nc1ccc(OC(F)(F)F)cc1	9.37%
CN(C)CCNC(=S)Nc1ccc(F)c(F)c1F	8.01%
Cc1ccc(C2CC2C(=O)NNC(=S)Nc2cccc(C)c2)cc1 (stereo not shown)	-0.868%
COc1ccccc1NC(=O)CSC1=NC(=O)C(Cc2ccccc2)C(=O)N1 (stereo not shown)	20.7%
CCC(C)n1c(SCC(=O)Nc2cc(C)on2)nc2ccccc2c1=O (stereo not shown)	17.5%
CC1=C(C#N)C(c2ccccc2O)C(C#N)=C(C)N1	11.1%
CCOc1ncccc1C(=O)OCC(=O)c1ccccc1Br	14.9%
CCCCN(C)CCCNC(=O)CS(=O)Cc1nc(-c2ccc(OC)c(OC)c2)oc1C (stereo not shown)	8.97%
COc1cc(/C=C(/NC(=O)c2ccccc2)C(=O)Nc2ccccc2)c([N+](=O)[O-])cc1OC	6.01%
COc1ccc(Br)cc1Cn1nnc(C(=O)Nc2ccc3c(c2)OCCO3)c1N	11.4%
O=c1c2ccccc2ncn1Cc1ccc(Cl)c(Cl)c1	12.6%
CCN(CC)S(=O)(=O)c1ccc(C(=O)N(c2ccccc2)C2C=CS(=O)(=O)C2)cc1 (stereo not shown)	-4.18%
CCOC(=O)c1[nH]c2ccc(OCC)cc2c1NC(=O)CN1CCCC(C)C1 (stereo not shown)	-2.44%
CN(C)C(=S)Nc1ccc(N2CCOCC2)cc1	16.9%
O=C(NCCC1CCCCN1S(=O)(=O)c1ccccc1)C(=O)NC1CC1 (stereo not shown)	8.5%
C[C@H](NC(=O)C1(c2ccccc2)CCN(C(=O)[C@H]2CSCN2C(=O)OC(C)(C)C)CC1)C(=O)O	16%
COc1cccc(N2C(=O)C3ON(c4ccccc4)C(c4cccs4)C3C2=O)c1 (stereo not shown)	9.48%
CCOC(=O)/C(C#N)=C/N=c1ccc(C)cn1C	6.27%
O=C(NC1Cc2ccccc2C1)c1cc(COc2ccc(F)cc2Cl)on1	15.7%
COc1ccc(CNc2ncc(-c3ccccc3)n2C)c(OC)c1OC.O=C(O)C(=O)O	-1.37%
Cc1cccc(N2C(=O)N(c3ccccc3C)C3CS(=O)(=O)CC32)c1 (stereo not shown)	16.2%
COc1ccc(-n2ccn(CC(=O)Nc3ccc(OC)cc3OC)c(=O)c2=O)cc1	18%
Cc1c(CNC(=O)c2cnn3c2NC(c2ccc(Br)cc2)CC3C(F)(F)F)cnn1C (stereo not shown)	3.82%
COc1ccccc1NC(=S)N(Cc1ccc(Cl)cc1)CC1CCC(C(=O)O)CC1 (stereo not shown)	8.65%
